Assay results published in the supplement of paper PMC6206098.
± gives the uncertainty stated by the source. The sequences are guide strands of siRNAs; only the seed at positions 2 to 7 varies.

How the values were obtained:
M565 = assay: cell viability relative to lipid-only control; higher = less toxic; conditions: concentration: 10 nM; 96 h; Mus musculus
Protocol: (§1)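 Arrayed screen of 4096 siRNA duplexes, each carrying one of all possible 6mer seeds at guide-strand positions 2-7 in a fixed neutral 19mer scaffold (constant flanks: U at position 1, then ACAUGUAAACCA, plus a 3' AA overhang). The passenger strand is 2'-O-methylated at positions 1-2 so only the guide strand loads into RISC. Duplexes were reverse-transfected at 10 nM with RNAiMAX in triplicate in 384-well plates; viability was read by CellTiter-Glo ATP content 96 h after transfection. Values are % viability normalised to lipid-only wells (HeyA8, H460, M565) or to siNT1 (3LL).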

H460 = assay: as above; conditions: concentration: 10 nM; 96 h; Homo sapiens
Protocol: as §1

HeyA8 = assay: as above; conditions: concentration: 10 nM; 96 h; Homo sapiens
Protocol: as §1

3LL = assay: cell viability relative to siNT1 control; HeyA8 human ovarian and H460 human lung cancer; M565 mouse liver and 3LL mouse lung cancer; siNT1 is a non-toxic control siRNA; higher = less toxic; conditions: concentration: 10 nM; 96 h; Mus musculus
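Wherever cell viability relative to lipid-only control is given: reverse lipid transfection in 384-well plates, in triplicate, of duplexes on a non-toxic 19mer backbone with passenger strand 2′-O-methylated at positions 1 and 2, luminescence viability read-out.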
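Wherever cell viability relative to siNT1 control is given: Luminescence-based viability of cells reverse transfected in 384-well plates with lipid-complexed siRNAs built on a non-toxic 19mer backbone whose passenger strand carries 2′-O-methyl groups at positions 1 and 2, triplicates.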

| Sequence | cell viability (M565) [%] | cell viability (H460) [%] | cell viability (HeyA8) [%] | cell viability (3LL) [%] |
| --- | --- | --- | --- | --- |
| UAUGCCUACAUGUAAACCAAA | 23.4 ± 7 | 16.3 ± 2.1 | 30.8 ± 1.6 | 41.8 ± 5.7 |
| UAUGCGAACAUGUAAACCAAA | 90.4 ± 18 | 76.7 ± 3.1 | 99.7 ± 8.9 | 107 ± 12 |
| UAUGCGCACAUGUAAACCAAA | 119 ± 2.1 | 63.7 ± 3.8 | 85.6 ± 6 | 32.2 ± 2.7 |
| UAUGCGGACAUGUAAACCAAA | 70.5 ± 4.9 | 74.6 ± 4.3 | 99.8 ± 1.5 | 107 ± 4 |
| UAUGCGUACAUGUAAACCAAA | 116 ± 6 | 83.7 ± 7.6 | 98.4 ± 5.7 | 81.3 ± 14 |
| UAUGCUAACAUGUAAACCAAA | 90.6 ± 14 | 85.9 ± 6.5 | 94.4 ± 4.4 | 102 ± 11 |
| UAUGCUCACAUGUAAACCAAA | 51.9 ± 19 | 72.1 ± 8.7 | 70.8 ± 2.6 | 52.5 ± 11 |
| UAUGCUGACAUGUAAACCAAA | 77.8 ± 19 | 70.2 ± 4.4 | 97.8 ± 3.7 | 106 ± 19 |
| UAUGCUUACAUGUAAACCAAA | 61.4 ± 5.6 | 55.1 ± 2.3 | 70.8 ± 4.4 | 88.9 ± 5.2 |
| UAUGGAAACAUGUAAACCAAA | 82.6 ± 5.3 | 104 ± 20 | 108 ± 4.4 | 117 ± 16 |
| UAUGGACACAUGUAAACCAAA | 22.1 ± 3.7 | 72 ± 11 | 81.2 ± 7 | 32.8 ± 2.8 |
| UAUGGAGACAUGUAAACCAAA | 80.2 ± 22 | 76.2 ± 8.6 | 93.2 ± 8.3 | 107 ± 15 |
| UAUGGAUACAUGUAAACCAAA | 42.9 ± 15 | 88.4 ± 14 | 85.2 ± 8.8 | 48.8 ± 3.1 |
| UAUGGCAACAUGUAAACCAAA | 50.6 ± 7.4 | 67.6 ± 7.1 | 90.2 ± 8 | 109 ± 6.5 |
| UAUGGCCACAUGUAAACCAAA | 11.9 ± 2.7 | 52.4 ± 7.1 | 83.6 ± 3.7 | 37 ± 3.9 |
| UAUGGCGACAUGUAAACCAAA | 79.7 ± 5.3 | 79 ± 13 | 94.6 ± 1.1 | 110 ± 17 |
| UAUGGCUACAUGUAAACCAAA | 31.8 ± 5.2 | 48.3 ± 6 | 76.9 ± 1.9 | 33.6 ± 5 |
| UAUGGGAACAUGUAAACCAAA | 65 ± 9.7 | 88.9 ± 6.5 | 85 ± 1.2 | 112 ± 8.8 |
| UAUGGGCACAUGUAAACCAAA | 13.2 ± 3.1 | 31.2 ± 3.2 | 36 ± 8.4 | 40.5 ± 4.7 |
| UAUGGGGACAUGUAAACCAAA | 75.9 ± 16 | 58.3 ± 5.7 | 57.7 ± 3.1 | 96.9 ± 3.8 |
| UAUGGGUACAUGUAAACCAAA | 27 ± 5.2 | 46.6 ± 4.8 | 48.3 ± 5.5 | 72.9 ± 8.3 |
| UAUGGUAACAUGUAAACCAAA | 72.7 ± 15 | 86.5 ± 15 | 94 ± 6.3 | 113 ± 11 |
